Reference: the supplement of paper PMC10126150
Sequences with one replicate were seen in a single cluster, so their values are uncertain.
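Further: ATP exposure 15 min at 22 °C before imaging.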

What follows are sequences tested on ATP (assay: switch fluorescence ratio, 500 uM ATP over buffer (Cy3 cluster intensity, sum of 5 cycles each) (fold (ratio)); higher = stronger signal-on switching upon ATP binding; sequences stand for … in TCGTCGGCAGCGTCAGATGTGTATAAGAGACAGTTTTTTTTTTTTTTTTTTTTTTTTT…TC). Conditions: aptamer strand: ATP DNA aptamer (quencher-CACCTGGGGGAGTATTGCGGAGGAAGG + anchor), 100 nM annealed; ATP concentration: 500 uM; one replicate.
Summary of the method: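 The fluorescence ratio divides summed target-cycle Cy3 intensity by summed buffer-cycle Cy3 intensity for each cluster and is averaged per switch-domain sequence. Cy3-labelled switching-strand clusters on a modified Illumina MiSeq flow-cell were annealed to 100 nM quencher-labelled ATP aptamer, then imaged in selection buffer and again after 15 min with 500 uM ATP at 22 °C. Five such cycles were run, with NaOH stripping and re-annealing between them, and clusters outside 100-1000 RFU were excluded.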
Work on TGGCTGCTAG yielded a switch fluorescence ratio of 0.97.
For TGGCTTCACA, the switch fluorescence ratio was 1.01.
In the case of TGGCTTTCCA, the switch fluorescence ratio was 1.05.
Sequence TGGGAAAATA has a switch fluorescence ratio of 1.01.
Sequence TGGGAAAGAC has a switch fluorescence ratio of 1.08.
With TGGGAACATA the switch fluorescence ratio was 1.17.
Work on TGGGAACATT yielded a switch fluorescence ratio of 1.01.
TGGGAAGAAA was tested, and the switch fluorescence ratio was 0.973.
In the case of TGGGAAGGAC, the switch fluorescence ratio was 1.03.
With TGGGACCATG the switch fluorescence ratio was 0.964.
Work on TGGGACTC yielded a switch fluorescence ratio of 0.989.
TGGGACTTAT showed a switch fluorescence ratio of 0.998.
TGGGAGATAG gave a switch fluorescence ratio of 0.983.
For TGGGAGATCT, the switch fluorescence ratio was 0.976.
For TGGGAGCACT, the switch fluorescence ratio was 1.04.
Sequence TGGGAGCGCT has a switch fluorescence ratio of 0.87.
TGGGAGTCGT was tested, and the switch fluorescence ratio was 0.985.
TGGGATCTTG gave a switch fluorescence ratio of 0.995.
TGGGATGATT gave a switch fluorescence ratio of 1.01.
Work on TGGGATGTGT yielded a switch fluorescence ratio of 0.991.
TGGGCACCTG gave a switch fluorescence ratio of 1.04.
TGGGCAGGAA was tested, and the switch fluorescence ratio was 1.
For TGGGCATACA, the switch fluorescence ratio was 1.15.
With TGGGCCACAA the switch fluorescence ratio was 1.03.
TGGGCCATAT was tested, and the switch fluorescence ratio was 0.987.
In the case of TGGGCGAGG, the switch fluorescence ratio was 1.02.
Work on TGGGCGGGT yielded a switch fluorescence ratio of 1.
For TGGGCTACCG, the switch fluorescence ratio was 1.02.
In the case of TGGGCTCAC, the switch fluorescence ratio was 0.974.
With TGGGCTCCGA the switch fluorescence ratio was 0.942.
For TGGGCTCCGT, the switch fluorescence ratio was 0.99.
TGGGCTCGGG gave a switch fluorescence ratio of 1.01.
TGGGGATAA gave a switch fluorescence ratio of 1.01.
Sequence TGGGGCAATG has a switch fluorescence ratio of 1.08.
Work on TGGGGCGAG yielded a switch fluorescence ratio of 0.939.
For TGGGGCGTGG, the switch fluorescence ratio was 0.979.
TGGGGCTAGA gave a switch fluorescence ratio of 1.01.
TGGGGCTGTA gave a switch fluorescence ratio of 1.1.
For TGGGGGCCT, the switch fluorescence ratio was 1.01.
In the case of TGGGGGCTCC, the switch fluorescence ratio was 0.993.
TGGGGTGAAA was tested, and the switch fluorescence ratio was 0.973.
Work on TGGGGTGACT yielded a switch fluorescence ratio of 0.986.
With TGGGGTTAA the switch fluorescence ratio was 0.926.
In the case of TGGGTACCCA, the switch fluorescence ratio was 1.15.
Work on TGGGTACTT yielded a switch fluorescence ratio of 0.977.
With TGGGTATACT the switch fluorescence ratio was 1.02.
In the case of TGGGTATCGC, the switch fluorescence ratio was 0.991.
TGGGTCCACA showed a switch fluorescence ratio of 0.979.
In the case of TGGGTCCTCT, the switch fluorescence ratio was 0.973.
With TGGGTCGAC the switch fluorescence ratio was 1.03.
In the case of TGGGTCGTAA, the switch fluorescence ratio was 1.01.
Work on TGGGTGCCTT yielded a switch fluorescence ratio of 0.943.
In the case of TGGGTTAAAC, the switch fluorescence ratio was 0.952.
TGGGTTACAC gave a switch fluorescence ratio of 1.05.
With TGGGTTACTG the switch fluorescence ratio was 0.979.
TGGGTTATG showed a switch fluorescence ratio of 0.991.
TGGGTTCAAA was tested, and the switch fluorescence ratio was 0.995.
TGGGTTCTAA gave a switch fluorescence ratio of 1.05.
Sequence TGGGTTTAAA has a switch fluorescence ratio of 1.
With TGGTAAGTGT the switch fluorescence ratio was 0.997.
TGGTACGGAT gave a switch fluorescence ratio of 1.05.
In the case of TGGTACTCTT, the switch fluorescence ratio was 1.
With TGGTACTTAA the switch fluorescence ratio was 1.01.
For TGGTAGAAGA, the switch fluorescence ratio was 1.05.
TGGTAGACCC showed a switch fluorescence ratio of 0.995.
TGGTAGACGA was tested, and the switch fluorescence ratio was 0.969.
TGGTAGCCGG gave a switch fluorescence ratio of 0.986.
For TGGTATATTT, the switch fluorescence ratio was 0.943.
TGGTCACGAC gave a switch fluorescence ratio of 0.973.
In the case of TGGTCCAGC, the switch fluorescence ratio was 1.01.
With TGGTCCCAGA the switch fluorescence ratio was 1.01.
For TGGTCCGCAC, the switch fluorescence ratio was 5.24.
TGGTCCGGCG showed a switch fluorescence ratio of 0.998.
In the case of TGGTCCTTAA, the switch fluorescence ratio was 1.01.
TGGTCGCCCT showed a switch fluorescence ratio of 1.01.
With TGGTCGTGGC the switch fluorescence ratio was 1.03.
In the case of TGGTCTAAGC, the switch fluorescence ratio was 1.03.
TGGTCTGCTG showed a switch fluorescence ratio of 0.987.
In the case of TGGTCTTGCG, the switch fluorescence ratio was 0.986.
TGGTGAGTCT gave a switch fluorescence ratio of 0.958.
TGGTGCTTGA showed a switch fluorescence ratio of 1.04.
With TGGTGGAAGG the switch fluorescence ratio was 0.971.
In the case of TGGTGGGCCT, the switch fluorescence ratio was 0.934.
Work on TGGTGTCAAC yielded a switch fluorescence ratio of 0.945.
TGGTGTCTCC was tested, and the switch fluorescence ratio was 0.988.
For TGGTGTGGCC, the switch fluorescence ratio was 0.96.
For TGGTGTTTA, the switch fluorescence ratio was 0.995.
In the case of TGGTTAATC, the switch fluorescence ratio was 0.95.
TGGTTACGCC was tested, and the switch fluorescence ratio was 0.98.
TGGTTACTAG gave a switch fluorescence ratio of 0.988.
In the case of TGGTTAGCGC, the switch fluorescence ratio was 0.993.
TGGTTAGTAG was tested, and the switch fluorescence ratio was 0.997.
Sequence TGGTTATATG has a switch fluorescence ratio of 1.02.
TGGTTATTTA showed a switch fluorescence ratio of 1.01.
For TGGTTCAGAT, the switch fluorescence ratio was 1.01.
In the case of TGGTTCCCCA, the switch fluorescence ratio was 0.996.
With TGGTTCCCCG the switch fluorescence ratio was 1.07.
For TGGTTCTATG, the switch fluorescence ratio was 0.988.
TGGTTCTCGT gave a switch fluorescence ratio of 1.01.
TGGTTGAAGT was tested, and the switch fluorescence ratio was 0.968.
In the case of TGGTTGCACA, the switch fluorescence ratio was 1.
In the case of TGGTTGGCTT, the switch fluorescence ratio was 0.986.
Sequence TGGTTTCAAT has a switch fluorescence ratio of 1.05.
With TGGTTTTAC the switch fluorescence ratio was 1.05.
For TGTAAAAGTT, the switch fluorescence ratio was 1.02.
TGTAACAAA showed a switch fluorescence ratio of 0.989.
TGTAAGTGTT gave a switch fluorescence ratio of 0.95.
TGTAATACCT was tested, and the switch fluorescence ratio was 1.03.
TGTAATTTCA gave a switch fluorescence ratio of 0.998.
In the case of TGTAATTTT, the switch fluorescence ratio was 1.04.
TGTACAATGA was tested, and the switch fluorescence ratio was 1.05.
TGTACAGGGC was tested, and the switch fluorescence ratio was 1.05.
Work on TGTACGAGGA yielded a switch fluorescence ratio of 1.
TGTACTCGCG was tested, and the switch fluorescence ratio was 1.
With TGTACTGGGA the switch fluorescence ratio was 1.04.
In the case of TGTACTTATC, the switch fluorescence ratio was 1.05.
With TGTAGACATG the switch fluorescence ratio was 1.
In the case of TGTAGATT, the switch fluorescence ratio was 0.997.
In the case of TGTAGGCCTC, the switch fluorescence ratio was 0.954.
In the case of TGTAGGCGTT, the switch fluorescence ratio was 1.01.
For TGTAGTAAGC, the switch fluorescence ratio was 1.16.
Sequence TGTAGTAGGA has a switch fluorescence ratio of 0.981.
Work on TGTAGTGGCG yielded a switch fluorescence ratio of 1.1.
In the case of TGTATAGCCG, the switch fluorescence ratio was 0.797.
Work on TGTATCAAAC yielded a switch fluorescence ratio of 1.02.
For TGTATCAGGT, the switch fluorescence ratio was 0.975.
Sequence TGTATCCCGG has a switch fluorescence ratio of 0.989.
Work on TGTATCGCGT yielded a switch fluorescence ratio of 0.951.
TGTATGGGGC showed a switch fluorescence ratio of 0.943.
Sequence TGTATGGTGT has a switch fluorescence ratio of 0.992.
With TGTATGTTCG the switch fluorescence ratio was 0.939.
With TGTATGTTTC the switch fluorescence ratio was 0.961.
TGTCAAAG was tested, and the switch fluorescence ratio was 1.01.
Work on TGTCAAGGG yielded a switch fluorescence ratio of 0.986.
Sequence TGTCAATAAT has a switch fluorescence ratio of 1.
In the case of TGTCACAACT, the switch fluorescence ratio was 1.05.
TGTCACTCTT gave a switch fluorescence ratio of 0.992.
TGTCAGAAAG gave a switch fluorescence ratio of 1.23.
TGTCAGGAGT showed a switch fluorescence ratio of 1.02.
Work on TGTCATCAGC yielded a switch fluorescence ratio of 1.01.
TGTCATGGCT gave a switch fluorescence ratio of 0.963.
TGTCCAAAAG was tested, and the switch fluorescence ratio was 1.01.
With TGTCCCCCTG the switch fluorescence ratio was 1.61.
TGTCCGAAGC gave a switch fluorescence ratio of 2.39.
TGTCGCAATT was tested, and the switch fluorescence ratio was 2.38.
TGTCGGATTC was tested, and the switch fluorescence ratio was 1.01.
TGTCGGTATC showed a switch fluorescence ratio of 0.984.
Work on TGTCGTGAGA yielded a switch fluorescence ratio of 1.04.
In the case of TGTCTAAGAT, the switch fluorescence ratio was 0.962.
TGTCTTAGGG gave a switch fluorescence ratio of 1.11.
TGTCTTCTCT was tested, and the switch fluorescence ratio was 1.
Sequence TGTGAATTTG has a switch fluorescence ratio of 0.989.
TGTGACACAG was tested, and the switch fluorescence ratio was 0.949.
TGTGACCAAT showed a switch fluorescence ratio of 1.
With TGTGACCGCA the switch fluorescence ratio was 1.25.
Work on TGTGACGAAT yielded a switch fluorescence ratio of 0.973.
Work on TGTGAGCCAG yielded a switch fluorescence ratio of 0.968.
TGTGAGCGTC showed a switch fluorescence ratio of 0.974.
With TGTGAGCTTG the switch fluorescence ratio was 1.01.
TGTGATGGCA gave a switch fluorescence ratio of 0.933.
Sequence TGTGCCCGAT has a switch fluorescence ratio of 1.01.
In the case of TGTGCTAGTC, the switch fluorescence ratio was 1.08.
For TGTGGAAGGC, the switch fluorescence ratio was 0.952.
In the case of TGTGGACTTA, the switch fluorescence ratio was 0.953.
TGTGGAGACG was tested, and the switch fluorescence ratio was 0.889.
In the case of TGTGGCCCGC, the switch fluorescence ratio was 0.982.
TGTGGGAAGC showed a switch fluorescence ratio of 1.
TGTGGTCTTA showed a switch fluorescence ratio of 1.02.
TGTGTAACGT gave a switch fluorescence ratio of 0.984.
Work on TGTGTACATT yielded a switch fluorescence ratio of 1.
For TGTGTACGGT, the switch fluorescence ratio was 0.978.
Work on TGTGTAGGTC yielded a switch fluorescence ratio of 1.04.
For TGTGTATATC, the switch fluorescence ratio was 1.01.
TGTGTATGAA showed a switch fluorescence ratio of 1.01.
With TGTGTCGTTA the switch fluorescence ratio was 1.
Sequence TGTGTCGTTC has a switch fluorescence ratio of 1.06.
For TGTGTGAGAG, the switch fluorescence ratio was 0.97.
With TGTGTGCGAA the switch fluorescence ratio was 0.99.
Work on TGTGTGCTCC yielded a switch fluorescence ratio of 0.997.
For TGTGTTGCAA, the switch fluorescence ratio was 1.13.
Sequence TGTGTTTAAT has a switch fluorescence ratio of 0.971.
Sequence TGTGTTTTAT has a switch fluorescence ratio of 0.985.
Work on TGTTAATCTA yielded a switch fluorescence ratio of 0.997.
With TGTTACAGGC the switch fluorescence ratio was 0.946.
Sequence TGTTATAGGC has a switch fluorescence ratio of 0.982.
With TGTTATCGCT the switch fluorescence ratio was 1.01.
TGTTATGCTT was tested, and the switch fluorescence ratio was 0.995.
Sequence TGTTCAGCTC has a switch fluorescence ratio of 1.34.
Work on TGTTCCAGGC yielded a switch fluorescence ratio of 1.04.
Work on TGTTCGTA yielded a switch fluorescence ratio of 0.965.
In the case of TGTTCGTAAT, the switch fluorescence ratio was 1.11.
TGTTCTCCTT showed a switch fluorescence ratio of 1.01.
TGTTCTTGC was tested, and the switch fluorescence ratio was 0.948.
For TGTTGATGAG, the switch fluorescence ratio was 0.941.
With TGTTGGACC the switch fluorescence ratio was 1.04.
Work on TGTTGGAGTC yielded a switch fluorescence ratio of 1.08.
With TGTTGGATGT the switch fluorescence ratio was 0.981.
TGTTGGCAGC was tested, and the switch fluorescence ratio was 0.982.
TGTTGGTATC was tested, and the switch fluorescence ratio was 0.998.
TGTTGGTTAC was tested, and the switch fluorescence ratio was 1.03.
TGTTGTAGCA showed a switch fluorescence ratio of 0.983.
